# Source: PubChem BioAssay (NCATS)
# The shares of active, inactive and inconclusive entries below differ from those in the screen. For part of these data: Potencies of inconclusive entries are doubtful fits and often do not repeat. For part of these data: A note “side channel” means that the fit belongs to a control or component signal, not to the main read-out. Active and inactive are the calls of the source. Unless noted, the call rests on the fitted dose curve.
# Key:
# [1] = biological target: Bile acid receptor (Homo sapiens) (UniProt Q96RI1); test: qHTS assay for small molecule antagonists of farnesoid X receptor signaling (AID 588526); settings: HEK293T FXR-UAS-bla, beta-lactamase ratio, antagonist mode; activity change, negative = inhibition: at 76.7 µM (top of the series); further: potency means the concentration at half of the fitted maximal effect
# In short: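 Beta-lactamase reporter antagonist mode: HEK293T FXR-UAS-bla cells, titrated compound, CDCA stimulation, 16 h 37 C, CCF4 dye 2 h RT. Data normalized to CDCA 50 uM and DMSO; Hill-fit IC50.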
# [2] = biological target: Bile acid receptor (Homo sapiens) (UniProt Q96RI1); test: qHTS assay for small molecule agonists of farnesoid X receptor signaling (AID 588527); settings: HEK293T FXR-UAS-bla, beta-lactamase ratio, 16 h; activation: stronger effect = higher value;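 further: 0% = vehicle basal and 100% = reference agonist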
# In short: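 Agonist-mode beta-lactamase reporter in GeneBLAzer FXR-UAS-bla HEK293T cells, titration up to 92 uM, 16 h exposure at 37 C, CCF4 fluorescence. Response scaled to DMSO (0%) and 100 uM chenodeoxycholic acid (100%), then Hill-fitted for EC50 and efficacy.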
# [3] = biological target: Glucocorticoid receptor (Homo sapiens) (UniProt P04150); test: qHTS assay for small molecule agonists of glucocorticoid receptor signaling (AID 588532; active means well fitted curve in the direction sought with a large enough effect in the signal ratio, with a control signal flat; inconclusive means small, poorly fitted or top-dose-only effect, or a change in a side signal; inactive means no such curve, though single readings can be large or run the other way; the % refers to the signal ratio; further: potency means the concentration at half of the fitted maximal effect); settings: HeLa MMTV-bla, beta-lactamase ratio, agonist, 18 h; activation: stronger effect = higher value, percent of dexamethasone control, DMSO zero
# In short: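 Quantitative HTS using CellSensor MMTV-bla HeLa cells in charcoal/dextran-treated serum; compounds tested up to 92 uM. After 18 h at 37 C, CCF4 dye reported reporter induction.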
# [4] = biological target: Glucocorticoid receptor (Homo sapiens) (UniProt P04150); test: qHTS assay for small molecule antagonists of glucocorticoid receptor signaling (AID 588533; active means well fitted inhibition curve with a large enough effect in the signal ratio, with a control signal flat, not every such curve was filed as active; inconclusive means small, poorly fitted or top-dose-only effect, or effect the other way, or a change in a side signal; the % refers to the signal ratio;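 further: cells stimulated with 2 nM dexamethasone as agonist; potency means the concentration at half of the fitted maximal effect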); settings: HeLa MMTV-bla, GRE beta-lactamase ratio, antagonist mode, 18 h; activity change, negative = inhibition: at 76.8 µM (top of the series)
# [5] = biological target: Peroxisome proliferator-activated receptor delta (Homo sapiens) (UniProt Q03181); test: qHTS assay for small molecule antagonists of peroxisome proliferator-activated receptor delta signaling (AID 588535; active means well fitted inhibition curve with a large enough effect in the signal ratio, with a control signal flat, not every such curve was filed as active; inconclusive means small, poorly fitted or top-dose-only effect, or effect the other way, or a change in a side signal; inactive means no such curve, though single readings can be large or run the other way; the % refers to the signal ratio; further: potency means the concentration at half of the fitted maximal effect); settings: HEK293T PPARd-UAS-bla, beta-lactamase FRET ratio, 18 h; activity change, negative = inhibition: at 76.7 µM (top of the series)
# UniProt Q03181, sequence (Q03181 whole entry, looked up): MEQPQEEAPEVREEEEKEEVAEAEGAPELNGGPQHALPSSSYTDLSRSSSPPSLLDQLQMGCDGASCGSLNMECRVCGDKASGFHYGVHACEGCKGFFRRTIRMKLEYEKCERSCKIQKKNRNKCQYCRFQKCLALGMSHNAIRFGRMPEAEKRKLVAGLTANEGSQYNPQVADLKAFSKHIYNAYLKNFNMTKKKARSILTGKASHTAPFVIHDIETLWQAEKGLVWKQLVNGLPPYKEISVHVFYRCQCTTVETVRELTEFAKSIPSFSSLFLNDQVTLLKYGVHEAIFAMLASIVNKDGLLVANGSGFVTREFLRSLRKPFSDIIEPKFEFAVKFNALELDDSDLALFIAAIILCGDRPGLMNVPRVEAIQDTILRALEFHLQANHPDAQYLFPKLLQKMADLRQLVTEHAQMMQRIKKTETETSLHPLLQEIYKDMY
# In short: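 Antagonist-mode qHTS using GeneBLAzer PPAR-delta-UAS-bla HEK293T cells; compound exposure 18 hrs at 37 C over a titration. Ratiometric CCF4 fluorescence at 460/530 nm; concentration-response points fitted to the Hill equation.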
# [6] = biological target: Peroxisome proliferator-activated receptor gamma (Homo sapiens) (UniProt P37231); test: qHTS assay for small molecule agonists of peroxisome proliferator-activated receptor gamma signaling (AID 588536; active means well fitted curve in the direction sought with a large enough effect in the signal ratio, with a control signal flat, not every such curve was filed as active; inconclusive means small, poorly fitted or top-dose-only effect, or effect the other way, or a change in a side signal; inactive means no such curve, though single readings can be large or run the other way; the % refers to the signal ratio;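 further: 0% = DMSO basal wells and 100% = rosiglitazone at 2 µM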); settings: HEK293 PPARg-UAS-bla, beta-lactamase ratio, 16 h; activation: at 76.7 µM (top of the series), percent of rosiglitazone response, DMSO as zero
# In short: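 This is an agonist-mode beta-lactamase reporter assay in HEK293 PPAR-gamma-UAS-bla cells with 1% charcoal/dextran FBS. Compound titrations ran 16 h at 37 C before CCF4 detection. EC50 and efficacy are Hill fits scaled to 2 uM rosiglitazone (100%) and DMSO basal.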
# [7] = biological target: Peroxisome proliferator-activated receptor gamma (Homo sapiens) (UniProt P37231); test: qHTS assay for small molecule antagonists of peroxisome proliferator-activated receptor gamma signaling (AID 588537; active means well fitted inhibition curve with a large enough effect in the signal ratio, with a control signal flat, not every such curve was filed as active; inconclusive means small, poorly fitted or top-dose-only effect, or effect the other way, or a change in a side signal; the % refers to the signal ratio); settings: HEK293 PPARg-UAS-bla, beta-lactamase ratio, antagonist mode; activity, negative = inhibition: at 76.8 µM (top of the series)
# In short: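 Cell-based beta-lactamase assay; GW9662 served as the antagonist control. Stimulation used rosiglitazone, final 50 nM, 16 h, 37 C.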
# [8] = biological target: Vitamin D3 receptor (Homo sapiens) (UniProt P11473); test: qHTS assay for small molecule antagonists of vitamin D receptor signaling (AID 588541); settings: HEK293T VDR-UAS-bla, beta-lactamase ratio, antagonist mode; activity change, negative = inhibition: at 76.7 µM (top of the series); further: potency means the concentration at half of the fitted maximal effect
# [9] = biological target: Vitamin D3 receptor (Homo sapiens) (UniProt P11473); test: qHTS assay for small molecule agonists of vitamin D receptor signaling (AID 588543); settings: HEK293T VDR-UAS-bla, beta-lactamase ratio, 16 h; activation: at 76.8 µM (top of the series); further: potency means the concentration at half of the fitted maximal effect
# In short: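 VDR-UAS-bla HEK293T cells, 2000/well, 2% charcoal-stripped FBS; compound titration 16 h at 37 C; CCF4 beta-lactamase ratio read. Normalized to 50 nM 1-alpha,25-dihydroxyvitamin D3 (100%) and DMSO; Hill fit gives EC50, efficacy.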
# [10] = biological target: Retinoic acid receptor RXR-alpha (Homo sapiens) (UniProt P19793); test: qHTS assay for small molecule agonists of retinoid X receptor alpha signaling (AID 588544); settings: HEK293T RXRa-UAS-bla, beta-lactamase reporter, 18 h; activation: at 76.7 µM (top of the series) unless noted;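 further: 0% = DMSO basal wells and 100% = reference agonist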
# UniProt P19793, sequence (P19793 whole entry, looked up): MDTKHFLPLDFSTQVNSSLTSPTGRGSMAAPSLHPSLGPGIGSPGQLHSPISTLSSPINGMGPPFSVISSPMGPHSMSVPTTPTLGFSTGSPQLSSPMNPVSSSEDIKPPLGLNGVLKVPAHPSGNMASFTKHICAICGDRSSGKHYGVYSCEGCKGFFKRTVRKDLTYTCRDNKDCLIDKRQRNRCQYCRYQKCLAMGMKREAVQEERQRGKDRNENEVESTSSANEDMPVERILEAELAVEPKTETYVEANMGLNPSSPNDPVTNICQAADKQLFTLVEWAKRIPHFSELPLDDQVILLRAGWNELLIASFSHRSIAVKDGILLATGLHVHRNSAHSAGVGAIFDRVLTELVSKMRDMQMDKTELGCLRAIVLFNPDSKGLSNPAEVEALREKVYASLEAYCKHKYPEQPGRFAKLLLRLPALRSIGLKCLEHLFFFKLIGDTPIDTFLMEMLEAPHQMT
# [11] = biological target: Retinoic acid receptor RXR-alpha (Homo sapiens) (UniProt P19793); test: qHTS assay for small molecule antagonists of retinoid X receptor alpha signaling (AID 588546; active means well fitted inhibition curve with a large enough effect in the signal ratio, with a control signal flat, not every such curve was filed as active; inconclusive means small, poorly fitted or top-dose-only effect, or effect the other way, or a change in a side signal; inactive means no such curve, though single readings can be large or run the other way; the % refers to the signal ratio;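 further: cells stimulated with 9-cis-retinoic acid as agonist; on the % scale 0 is the no-effect control and ±100 the full control effect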); settings: HEK293T RXRa-UAS-bla, beta-lactamase ratio, antagonist mode
# In short: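 Beta-lactamase reporter inhibition, read as CCF4 fluorescence ratio (ex 405, em 460/530 nm) after 2 h at RT. HEK293T UAS-bla cells, 2500/well, were stimulated with 9-cis-RA at 500 or 100 nM final alongside test compound for 18 h at 37 C.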
# [12] = biological target: Thyroid hormone receptor beta (Homo sapiens) (UniProt P10828); test: qHTS assay for small molecule antagonists of thyroid hormone receptor beta signaling (AID 588547; active means well fitted inhibition curve with a large enough effect in the signal ratio, with a control signal flat, not every such curve was filed as active; inconclusive means small, poorly fitted or top-dose-only effect, or effect the other way, or a change in a side signal; the % refers to the signal ratio; further: potency means the concentration at half of the fitted maximal effect); settings: TR-UAS-bla HEK293, beta-lactamase ratio, antagonist mode, 18 h
# UniProt P10828, sequence (P10828 whole entry, looked up): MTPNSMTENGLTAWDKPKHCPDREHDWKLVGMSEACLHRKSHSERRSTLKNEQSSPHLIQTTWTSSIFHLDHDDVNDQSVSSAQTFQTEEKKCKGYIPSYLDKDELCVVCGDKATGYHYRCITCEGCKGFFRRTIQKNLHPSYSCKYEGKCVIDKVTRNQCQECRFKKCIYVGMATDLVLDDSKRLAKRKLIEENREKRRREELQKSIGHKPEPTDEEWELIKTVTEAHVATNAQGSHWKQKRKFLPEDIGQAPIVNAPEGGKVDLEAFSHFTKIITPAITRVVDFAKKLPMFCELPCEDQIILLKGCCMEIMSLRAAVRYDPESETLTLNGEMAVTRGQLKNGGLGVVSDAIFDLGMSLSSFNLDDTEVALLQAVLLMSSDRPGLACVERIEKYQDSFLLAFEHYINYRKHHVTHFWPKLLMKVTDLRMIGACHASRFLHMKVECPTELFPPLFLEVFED
# In short: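 Inhibition of T3-driven (0.4nM final) beta-lactamase reporter activity was measured over 0.59 nM to 92 uM compound after 18 h at 37 C. The cells were GripTite HEK293 TR-UAS-bla in charcoal/dextran-stripped serum, with CCF4 ratio read-out and IC50 from Hill fits.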
# [13] = qHTS assay for small molecule agonists of the antioxidant response element (ARE) signaling pathway (AID 651741; active means well fitted activation curve with a large enough effect in the signal ratio; inconclusive means small, poorly fitted or top-dose-only effect, or effect the other way, or a change in a side signal; the % refers to the signal ratio; further: potency means the concentration at half of the fitted maximal effect); settings: HepG2 ARE-bla reporter, beta-lactamase FRET ratio, 16 h; activation: at 96 µM (top of the series) unless noted
# In short: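 Agonist activity is measured as ARE-driven beta-lactamase expression in a stable HepG2 reporter line, using 16 h compound treatment at 37 C and a FRET substrate fluorescence readout after 2 h.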
# [14] = qHTS assay for small molecule activators of the nuclear factor-kappa B (NF-kB) signaling pathway (AID 651749; active means well fitted activation curve with a large enough effect in the signal ratio; inconclusive means small, poorly fitted or top-dose-only effect, or a change in a side signal; the % refers to the signal ratio; further: potency means the concentration at half of the fitted maximal effect); settings: NF-kB-bla ME-180 cells, beta-lactamase FRET ratio, 16 h; activation: stronger effect = higher value
# In short: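 FRET-based beta-lactamase detection in ME-180 cells reports NF-kB response-element-driven transcription following overnight (16 hr) compound treatment.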
# [15] = qHTS assay to identify small molecules that stimulate interleukin-8 (IL-8) secretion (AID 651758; active means well fitted activation curve with a large enough effect in the signal ratio; inconclusive means small, poorly fitted or top-dose-only effect, or effect the other way, or a change in a side signal; the % refers to the signal ratio; further: potency means the concentration at half of the fitted maximal effect); settings: HTRF ratio (665/615); activation: at 92.2 µM (top of the series)
# In short: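 Secreted IL-8 measured homogeneously by TR-FRET (two labelled anti-IL-8 antibodies, 1-3 h at room temperature) after a 16 h, 37 C compound treatment of THP-1 cells at 2000 cells/well.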
# [16] = qHTS assay for small molecule agonists of the antioxidant response element (ARE) signaling pathway measured by Nrf2-dependant transcriptional activity (AID 720636; active means well fitted curve in the direction sought with a large enough effect in the repeat runs; inconclusive means weak or mixed curves; inactive means no such curve, though single readings can be large; an effect the other way counts as inactive or inconclusive; further: potency means the concentration at half of the fitted maximal effect)
# In short: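 In HepG2 cells engineered with an Nrf2-responsive luciferase gene, ARE induction was quantified as luminescence after 16 hr compound treatment at 37 C.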
# [17] = qHTS assay for small molecule antagonists of the retinoid-related orphan receptor gamma (ROR-gamma) signaling pathway - cell viability counter screen (AID 720652; active means well fitted curve in the direction sought with a large enough effect in the repeat runs; inconclusive means weak or mixed curves; inactive means no such curve, though single readings can be large; an effect the other way counts as inactive or inconclusive;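 further: CHO reporter cells with doxycycline-induced ROR-gamma expression; compound exposure lasted 16 hr before ATP read; on the % scale 0 is the no-effect control and ±100 the full control effect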)
# In short: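 ATP-based viability readout in the ROR-gamma reporter CHO cells after 16 hr compound exposure under doxycycline induction.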
# [18] = qHTS assay for cell viability of HEK293 cells (AID 743288; active means well fitted curve in the direction sought with a large enough effect; inconclusive means small, poorly fitted or top-dose-only effect, or another doubt; inactive means no such curve, though single readings can be large; an effect the other way counts as inactive or inconclusive; further: potency means the concentration at half of the fitted maximal effect; nearly all actives have a fitted effect of over 50% in size); settings: ATP luminescence (CellTiter-Glo), 18 h; max response: stronger effect = lower value
# In short: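 Steps: plate 2,000 parental HEK293 cells per well; incubate ≥5 h, 37 C; add compounds in DMSO; incubate 18 h, 37 C; add CellTiter-Glo; wait 30 min at room temperature; read luminescence.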
# Tags describe the fitted curve by direction and shape or compound fluorescence and quenching.
smiles,measurement,setting,value
C=CC(=O)OCCOCCOC(=O)C=C,Potency,[1],"inconclusive: 44.7 µM [inhibitor, partial curve, poor fit]"
same,activation,[2],inconclusive: 29.7%
same,Potency,[3],"inconclusive: 39.8 µM [side channel, falling, partial curve, poor fit]"
same,Potency,[4],active: 44.7 µM
same,Potency,[5],"inconclusive: 39.8 µM [side channel, rising, partial curve]"
same,activation,[6],inconclusive: -19.5%
same,Potency,[7],"inconclusive: 44.7 µM [side channel, rising, partial curve]"
same,Potency,[8],"inconclusive: 20 µM [side channel, rising, single point]"
same,Potency,[9],"inconclusive: 50.1 µM [side channel, falling, partial curve, poor fit]"
same,activation,[10],inconclusive: -31.8%
same,max response,[11],inconclusive: -83.9%
same,Potency,[12],"inconclusive: 39.8 µM [side channel, rising, partial curve, poor fit]"
same,Potency,[13],active: 47.3 µM
same,Potency,[14],"inconclusive: 39.8 µM [side channel, falling, partial curve]"
same,Potency,[15],"inconclusive: 59.6 µM [inhibitor, single point]"
same,Potency,[16],active: 66.8 µM
same,Potency,[17],inactive
same,Potency,[18],"inconclusive: 39.8 µM [cytotoxic, partial curve, poor fit]"
